This assay concerns influenza virus (PR-8). Conditions: 50 mg/kg intraperitoneally 24 hours before infection and 5 times every other day from second day; survival 21 days or more.
Consider `CC(C)=CCCC(C)=CCCC(C)=CCCC(C)=CCCC(C)=CCCC(C)=CCCC(C)=CCCC(C)=CCCC(C)=CCN(CCc1ccccc1)Cc1ccccc1`, for which the “Prevention from influenza infection (Survival rate %)” value (shortened to “Prevention … (Survival rate %)”) is recorded as 40%.

Take `CC(C)=CCCC(C)=CCCC(C)=CCCC(C)=CCCC(C)=CCCC(C)=CCCC(C)=CCCC(C)=CCCC(C)=CCCC(C)=CCN(Cc1ccccc1)CC(O)CN(CCO)CCO` (centres unmarked) [drawing 51]: the “Prevention … (Survival rate %)” value was 40%.

For `CC(C)=CCCC(C)=CCCC(C)=CCCC(C)=CCCC(C)=CCCC(C)=CCCC(C)=CCCC(C)=CCCC(C)=CCCC(C)=CCN(Cc1ccccc1)CC(O)CNC(C)(C)C` (centres unmarked) [drawing 52], the “Prevention … (Survival rate %)” value amounted to 20%.

In the case of `CC(C)=CCCC(C)=CCCC(C)=CCCC(C)=CCCC(C)=CCCC(C)=CCCC(C)=CCCC(C)=CCCC(C)=CCN(CCc1ccccc1)CC(O)CNC(C)(C)C` (centres unmarked) [drawing 53], the “Prevention … (Survival rate %)” value is 70%.

Turning to `CC(C)=CCCC(C)=CCCC(C)=CCCC(C)=CCCC(C)=CCCC(C)=CCCC(C)=CCCC(C)=CCCC(C)=CCN(CCc1ccccc1)CC(O)CN1CCN(CCO)CC1` (centres unmarked) [drawing 54], the “Prevention … (Survival rate %)” value stood at 60%.

Source of the values: patent publication US4723008A, “Isoprenylamine derivatives” (priority 1981, dated 1988).
